Experimental data: the supplement of paper PMC10126150
Values marked as one replicate rest on one cluster of the flow cell; about a third of the high ones do not repeat.

system: ATP; test: switch fluorescence ratio, 500 uM ATP over buffer (Cy3 cluster intensity, sum of 5 cycles each) (fold (ratio)); higher = stronger signal-on switching upon ATP binding; sequences stand for … in TCGTCGGCAGCGTCAGATGTGTATAAGAGACAGTTTTTTTTTTTTTTTTTTTTTTTTT…TC; settings: aptamer strand: ATP DNA aptamer (quencher-CACCTGGGGGAGTATTGCGGAGGAAGG + anchor), 100 nM annealed; ATP concentration: 500 uM; one replicate
In short: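 Values give the fluorescence ratio for each switch-domain sequence, averaged from per-cluster ratios of summed target-cycle to summed buffer-cycle Cy3 intensity. The Cy3-labelled switching-strand clusters sat on a modified Illumina MiSeq flow-cell, were annealed to 100 nM quencher-labelled ATP aptamer, and were imaged in selection buffer, then after 15 min with 500 uM ATP at 22 °C. Five cycles ran with NaOH stripping and re-annealing between them, and clusters outside 100-1000 RFU were excluded.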
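Further: ATP exposure 15 min at 22 °C before imaging.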

| Sequence | switch fluorescence ratio |
| --- | --- |
| ACAGGGCCAG | 1.06 |
| ACAGGGGGAT | 1.07 |
| ACAGGGTTCG | 1.01 |
| ACAGTAGGTA | 1 |
| ACAGTAGTA | 1.07 |
| ACAGTAGTG | 1.02 |
| ACAGTATACC | 1.19 |
| ACAGTCTGTA | 1.04 |
| ACAGTGAGAG | 0.957 |
| ACAGTGGCTA | 1.01 |
| ACAGTTTATC | 1.03 |
| ACATAAGGGG | 2.48 |
| ACATAAGTA | 1.02 |
| ACATACATG | 1.12 |
| ACATACATTC | 1.2 |
| ACATAGTAGT | 1.02 |
| ACATAGTTCC | 1.1 |
| ACATATGAGT | 1.02 |
| ACATATTGG | 1.01 |
| ACATCACAG | 1.42 |
| ACATCGTGGA | 1.02 |
| ACATCTTGTC | 1.07 |
| ACATGAAAGC | 1.04 |
| ACATGAGAAT | 0.987 |
| ACATGATTT | 1.01 |
| ACATGGTGCC | 1.03 |

| Sequence | switch fluorescence ratio |
| --- | --- |
| ACATTACTGA | 1.32 |
| ACATTCGGA | 0.957 |
| ACATTCGGG | 0.982 |
| ACATTTATAC | 1.14 |
| ACATTTCGG | 0.993 |
| ACATTTGCCG | 1 |
| ACCAAAGGGG | 1.06 |
| ACCAAATTGT | 1.11 |
| ACCAAGTCG | 1.02 |
| ACCAATGGAT | 1.03 |
| ACCAATGGG | 0.977 |
| ACCACAATCG | 1.08 |
| ACCACCATGG | 1.04 |
| ACCACCCGTG | 1.19 |
| ACCACGGAGC | 1.21 |
| ACCAGCTCAT | 0.992 |
| ACCAGTTAGT | 1.02 |
| ACCATAGTAA | 1.04 |
| ACCATGAAAT | 0.963 |
| ACCATGCATC | 1.08 |
| ACCATGTTCG | 1.03 |
| ACCATTCGCG | 1.01 |
| ACCATTTTGT | 1.02 |
| ACCCACGAAC | 1.34 |
| ACCCAGTTAG | 1.07 |
| ACCCATAATT | 1.01 |

| Sequence | switch fluorescence ratio |
| --- | --- |
| ACCCATATGT | 1.07 |
| ACCCCTATAA | 1.14 |
| ACCCGAATTG | 1.04 |
| ACCCGACGG | 1.18 |
| ACCCGCGGAT | 1.17 |
| ACCCGGATGT | 1.04 |
| ACCCGGTTGT | 1.15 |
| ACCCGTACGG | 0.999 |
| ACCCGTCAAT | 3.86 |
| ACCCGTGGGT | 1.02 |
| ACCCTACTAA | 1.26 |
| ACCCTGCATA | 1.45 |
| ACCCTTAACG | 1.04 |
| ACCGAACAGG | 0.999 |
| ACCGAACGTT | 1.41 |
| ACCGAATACG | 1.53 |
| ACCGAGACG | 1.01 |
| ACCGAGGCGA | 1.04 |
| ACCGATTTCA | 1.01 |
| ACCGCCTCGA | 1.18 |
| ACCGCGAAGA | 1.37 |
| ACCGCGCTTA | 1.14 |
| ACCGCGGCCA | 1.03 |
| ACCGCTTCAA | 1.09 |
| ACCGCTTCCC | 1.9 |
| ACCGGAGACA | 1.19 |

| Sequence | switch fluorescence ratio |
| --- | --- |
| ACCGGAGGAC | 1.13 |
| ACCGGATCCG | 1.01 |
| ACCGGCCGCT | 1.08 |
| ACCGGGGCTG | 1.01 |
| ACCGGTGCGT | 1.04 |
| ACCGTAACGC | 1.45 |
| ACCGTATTTT | 1.05 |
| ACCGTCCGCC | 2.5 |
| ACCGTGCTCG | 1.06 |
| ACCGTGGAAC | 1.14 |
| ACCGTGTCAC | 1.02 |
| ACCTAATTCT | 1.02 |
| ACCTACGTCT | 1.14 |
| ACCTACTGAC | 1.26 |
| ACCTAGATAT | 0.995 |
| ACCTAGATGG | 0.966 |
| ACCTATGACC | 1.08 |
| ACCTATGCCG | 1.09 |
| ACCTATGCCT | 1.03 |
| ACCTATTTGA | 1.02 |
| ACCTCACCGG | 1.29 |
| ACCTCATGGT | 1 |
| ACCTCCAAAG | 2.3 |
| ACCTCCAGGG | 1.17 |
| ACCTCCGGTT | 1.18 |
| ACCTCGCGCT | 1.32 |

| Sequence | switch fluorescence ratio |
| --- | --- |
| ACCTCGTTAA | 0.992 |
| ACCTCTGGCG | 1.06 |
| ACCTGATTAC | 1.17 |
| ACCTGCAAGA | 1.77 |
| ACCTGCACAT | 1.3 |
| ACCTGCCGTT | 1.01 |
| ACCTGCTCGT | 1.06 |
| ACCTGGTCCG | 1.23 |
| ACCTGTGCGA | 1.46 |
| ACCTTAGAAT | 1.04 |
| ACCTTAGGGG | 1.23 |
| ACCTTAGTTT | 1.04 |
| ACCTTATAGT | 1.01 |
| ACCTTCCGAG | 3.7 |
| ACCTTCGGC | 1.1 |
| ACCTTCGTCT | 1.24 |
| ACCTTGAGCG | 1.01 |
| ACCTTGCTAC | 3.33 |
| ACCTTGTTGG | 0.992 |
| ACGAAACAGT | 1.09 |
| ACGAACGAGC | 1.3 |
| ACGAACGGGA | 1.38 |
| ACGAATAGAG | 1.05 |
| ACGACAACAG | 1.23 |
| ACGACAACTC | 1.4 |
| ACGACAAGGG | 1.08 |

| Sequence | switch fluorescence ratio |
| --- | --- |
| ACGACCGAGC | 2.31 |
| ACGACCGGGG | 1.18 |
| ACGACCTACA | 1.37 |
| ACGACGGGTC | 1.16 |
| ACGACTAATT | 1.09 |
| ACGACTTAGT | 1.01 |
| ACGAGAAACG | 0.972 |
| ACGAGAGGGC | 1.07 |
| ACGAGATACA | 1.14 |
| ACGAGGGCG | 0.963 |
| ACGAGGGCTC | 0.998 |
| ACGAGGGGCT | 0.964 |
| ACGAGTCGGA | 1.03 |
| ACGAGTGGAA | 1.05 |
| ACGATAACC | 1.26 |
| ACGATACCGG | 1.51 |
| ACGATACCTA | 1.36 |
| ACGATAGGCT | 1.04 |
| ACGATCGAGA | 1.01 |
| ACGATCTTTA | 0.985 |
| ACGATGAGAA | 0.996 |
| ACGATTCGCG | 0.924 |
| ACGATTTGGA | 1.03 |
| ACGCAAAGAC | 2.74 |
| ACGCAAAGTC | 2.14 |
| ACGCACAAAA | 1.45 |

| Sequence | switch fluorescence ratio |
| --- | --- |
| ACGCACACAA | 1.54 |
| ACGCACGTAA | 1.16 |
| ACGCACTGGT | 1.49 |
| ACGCAGTTAC | 4.15 |
| ACGCATAGGG | 1.17 |
| ACGCATTTTT | 2.11 |
| ACGCCAAGAA | 1.25 |
| ACGCCAGGAA | 1.08 |
| ACGCCATCTC | 1.22 |
| ACGCCATGCG | 1.02 |
| ACGCCCCCCA | 1.96 |
| ACGCCGCCT | 0.989 |
| ACGCCGCTTA | 1.77 |
| ACGCCTTACC | 1.66 |
| ACGCGCGGGT | 1.03 |
| ACGCGGGGTT | 1.01 |
| ACGCTCATTT | 1.07 |
| ACGCTCGTGC | 1.05 |
| ACGCTTAAGT | 1.06 |
| ACGGAACCTT | 1.29 |
| ACGGACGCGG | 1.03 |
| ACGGACTAA | 1.24 |
| ACGGACTAGC | 1.22 |
| ACGGACTTAA | 1.33 |
| ACGGAGAGC | 1.09 |
| ACGGATACTC | 2.06 |

| Sequence | switch fluorescence ratio |
| --- | --- |
| ACGGATATGC | 1.35 |
| ACGGATGAC | 1.06 |
| ACGGATTCGG | 1.01 |
| ACGGATTTCA | 1.03 |
| ACGGCAACAG | 1.54 |
| ACGGCAGATG | 0.994 |
| ACGGCATTC | 1.32 |
| ACGGCCGGTT | 1.06 |
| ACGGCGATCA | 1.03 |
| ACGGCGGAGA | 1.02 |
| ACGGCTACT | 1.21 |
| ACGGCTTTCT | 0.976 |
| ACGGGAAGTT | 0.959 |
| ACGGGAGATA | 0.999 |
| ACGGGATCTG | 0.971 |
| ACGGGCTCAG | 1.02 |
| ACGGGCTGGT | 1.03 |
| ACGGGCTGTT | 0.967 |
| ACGGGGAACA | 1.03 |
